# From PubChem BioAssay AID686978 (National Center for Advancing Translational Sciences (NCATS), 2013)
# About 64,000 (15%) of roughly 420,000 compounds were called active. Inconclusive means that the source gave no clear call. Such entries were picked first, then a sample of the others. Calls follow the shape of the dose curve; as a rule, active = well fitted inhibition curve with a large enough effect; inconclusive = small, poorly fitted or top-dose-only effect; inactive = flat fitted curve, though single readings scatter. No potency is given beside an inconclusive call; the fits are too rough.
# Experiment: qHTS for Inhibitors of human tyrosyl-DNA phosphodiesterase 1 (TDP1): qHTS in cells in absence of CPT; also: nearly all actives have a fitted effect of over 55% in size
# Conditions: DT40 Tdp1-/- hTDP1 cells, no CPT, ATP luminescence, 48 h; activity change, negative = growth inhibition: at 46.2 µM (top of the series) unless noted
# Procedure, shortened: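 Seeded 400 DT40-hTDP1 cells/well (vehicle DMSO, no 20 nM CPT); pinned compounds; ≥48 hr at 37 °C; CellTiter-Glo luminescence as viability measure.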
# % is scaled to controls: 0 for no effect and ±100 for the full control effect; potency is read from the fitted curve at half-maximal effect; tags tell the direction and shape of the fitted curve.
SMILES,"activity change, negative = growth inhibition",Potency
Cn1cc([C@]2(O)C(=O)Nc3ccccc32)c2ccccc21,inactive: 8.83%,
C[C@@H]1CCCCO[C@H](CN(C)C(=O)Nc2ccc(F)cc2)[C@@H](C)CN([C@H](C)CO)C(=O)c2cc(N(C)C)ccc2O1,,"inconclusive [inhibitor, single point]"
COc1ccc(C(=O)Cn2cc[n+](C)c2)cc1,inactive: -6.3%,
CC1(C)CCC[C@]2(C)[C@H]3Cc4cc(O)ccc4O[C@]3(C)CC[C@@H]12,,"inconclusive [inhibitor, single point]"
Cn1c(=O)nc2n(-c3ccc(Cl)c(Cl)c3)c3cc(Cl)ccc3cc-2c1=O,inactive: 15.4%,
Cc1ccc(C(=O)c2cc(C)sc2N)cc1,inactive: -23.1%,
COC(=O)C(CC(=O)c1ccccc1)CC(=O)c1ccccc1,inconclusive: -37.1% [inhibitor],
CC1=C(C(=O)OCC2CCCCC2)C(c2ccccc2F)CC(=O)N1 (stereo not given),,"inconclusive [inhibitor, single point]"
COc1ccccc1CNC(=O)C1CCCN(c2nnc(-n3c(C)ccc3C)s2)C1 (stereo not given),,"inconclusive [inhibitor, single point]"
Cc1ccc(-n2c(SCC(=O)Nc3cccc(S(=O)(=O)NC4=NCCCCC4)c3)nc3ccccc3c2=O)cc1C,inconclusive: -30.5% [inhibitor],
CCC(c1nnc(SCC(=O)Nc2nnc(-c3ccccc3)o2)o1)N(C)C (stereo not given),inactive: -5.68%,
CN(Cc1ccccc1)C(=O)COC(=O)c1ccccc1Nc1ccccc1,,"inconclusive [inhibitor, single point]"
CCN1C(=O)[C@H]2[C@H]3CN=C(SCc4ccc(C)cc4)N3[C@@](C)(C(=O)OC)[C@H]2C1=O,,"inconclusive [inhibitor, single point]"
CC(C)(C)c1ccc(C(=O)N2CCC2(C)C(=O)NS(=O)(=O)c2ccc(C#N)cc2)cc1 (stereo not given),inactive: 2.58%,
CCCCOc1ccc(C(=O)Nc2ccc(S(=O)(=O)Nc3cc(C)on3)cc2)cc1OC,,"inconclusive [inhibitor, full curve]"
O=C(CCN1C(=O)COc2ccccc21)NCCN1CCN(c2ccccc2F)CC1,inactive: 0.596%,
CC1(NC(=O)Cc2csc(-c3cccc(Cl)c3)n2)CCS(=O)(=O)C1 (stereo not given),,"inconclusive [inhibitor, single point]"
Cc1ccc2nc(N/N=C/c3ccccc3C#N)nc(-c3ccccc3)c2c1,,active: 23.1 µM
OC(c1ccccc1)c1nc(/C=C/c2ccc(C(F)(F)F)cc2)cs1 (stereo not given),,"inconclusive [inhibitor, single point]"
Cc1ccc(C)c(Oc2ccc(S(=O)(=O)N3CCN(C)CC3)cn2)c1,,"inconclusive [inhibitor, single point]"
Cc1ccc(S(=O)(=O)N2CCC(C(=O)OCC(=O)Nc3cc(S(C)(=O)=O)ccc3Cl)CC2)cc1C,inactive: 1.46%,
Cc1ccc(Cn2ccc(NC(=O)c3cc(-c4ccco4)on3)n2)cc1,inactive: -19.2%,
COc1cc(O)c(C=NN2C(=O)CSC2=S)c(OC)c1,,active: 23.1 µM
COc1ccc(C(=O)N/N=C/c2ccc(OC)c(COc3ccccc3)c2)cc1,,"inconclusive [inhibitor, single point]"
COCCN1C[C@@H](CO)O[C@@H](n2cnc3c(NCCO)ncnc32)C1,inconclusive: -3.76% [inhibitor],

SMILES,"activity change, negative = growth inhibition",Potency
OC(COc1ccccc1)Cn1c2ccccc2c2ccccc21 (stereo not given),,"inconclusive [inhibitor, single point]"
O=C(NCc1ccccc1)C1c2ccccc2OCC(=O)N1CC(F)(F)F (stereo not given),inactive: -16%,
Cc1nc2nc(SCC(=O)NCCc3ccccc3)nn2c(C)c1Cc1c(F)cccc1Cl,inactive: -24.9%,
CC(C)CCNC(=O)C(=O)Nc1ccc2c(c1)N(S(=O)(=O)c1cccs1)CCC2,,active: 3.66 µM
O=C(COc1ccccc1)NCCc1cn2ccsc2n1,inactive: 0.76%,
Cc1ccc(Cn2ncc3c(N4CCN(c5ccc(C)cc5)CC4)ncnc32)cc1,,"inconclusive [inhibitor, partial curve]"
COc1cccc(/C=N/Nc2ncnc3c2[nH]c2ccc(C)cc23)c1OC,,active: 5.8 µM
CO[C@H]1CC[C@@]2(C)[C@@H](CC[C@@H]3[C@@H]2CC[C@@]2(C)[C@H]3C[C@H](C(=O)O)O[C@]23CCCO3)C1,inactive: -6.53%,
COCC1CCN(C(=O)c2cc(COc3ccc4ncccc4c3)on2)CC1,,active: 8.2 µM
Cc1ccccc1CNS(=O)(=O)c1csc(C(N)=O)c1,,inactive
Cc1nc(NCCc2ccc(O)cc2)c2nnn(Cc3ccccc3)c2n1,,active: 14.6 µM
CC1(C)CC(=O)C2=C(C1)OC(N)=C(C#N)C2C1CC=CCC1 (stereo not given),inconclusive: -32.5% [inhibitor],
O=C(CSc1nc2ncc(Br)cc2[nH]1)Nc1ccc2c(c1)OCO2,,"inconclusive [inhibitor, partial curve]"
CN(Cc1ccccc1)C(=O)c1[nH]cnc1C(=O)Nc1cccc(Cl)c1,,"inconclusive [inhibitor, single point]"
COc1ccc(C(=O)N(Cc2ccc(C(C)C)cc2)C2CCS(=O)(=O)C2)cc1 (stereo not given),,active: 14.6 µM
CC(=O)Nc1cc(-c2ccccc2)cn2c(-c3ccc(F)cc3)cnc12,,"inconclusive [inhibitor, single point]"
COCCCNC(=O)C1CCN(C(=O)Nc2ccc(Cl)cc2)CC1,inactive: 5.92%,
COc1cccc(C2=CC(=O)CC(C)(C)C2)c1,,"inconclusive [inhibitor, single point]"
O=C(NCc1cccs1)C1CCCN1C(=O)Nc1ccccc1[N+](=O)[O-] (stereo not given),inactive: -12.7%,
CC1=C(C)CC(C(=O)NCc2c(F)cccc2Cl)C(C(=O)O)C1 (stereo not given),inactive: -0.95%,
CSCCC(NS(=O)(=O)c1ccc(Cl)cc1)C(=O)OCc1c(Cl)cccc1Cl (stereo not given),,active: 20.6 µM
COc1ccccc1N1CCN(C(=O)c2cccc(C(=O)N3CCN(c4ccccc4OC)CC3)c2)CC1,,"inconclusive [inhibitor, partial curve]"
N#CCCn1c(=O)c(-c2ccccc2)nc2cnc(N3CCOCC3)nc21,inactive: -11.8%,
O=C(O)c1ccc(COc2ccc([N+](=O)[O-])cc2)o1,inactive: -0.84%,
O=C(NC1CCSC1=O)c1ccc(Oc2cccc(C(F)(F)F)c2)nc1 (stereo not given),inconclusive: -33.9% [inhibitor],

SMILES,"activity change, negative = growth inhibition",Potency
CCOC(=O)C1CCCN(C(=O)C2c3ccccc3Oc3ccccc32)C1 (stereo not given),,"inconclusive [inhibitor, single point]"
CCOc1ccc(CCNC(=O)Cn2c(-c3nonc3N)nc3ccccc32)cc1OCC,,active: 12.6 µM
CCOc1ccccc1C(=O)Nc1ccc2c(c1)N(C)C(=O)c1ccccc1S2,,active: 3.66 µM
Cc1ccccc1OCC(=O)N(Cc1nc(-c2ccccc2)no1)C(C)C,,"inconclusive [inhibitor, single point]"
COc1cc(OC)cc(C(=O)Nc2ccc(Nc3ccccc3)cc2)c1,,"inconclusive [inhibitor, single point]"
CC(=O)NC(C)c1ccc(C(=O)CSc2nnc(C3CC3)n2C2CC2)cc1 (stereo not given),inactive: 11.8%,
FC(F)(F)Oc1ccc(NC(=S)Nc2ccccc2N2CCOCC2)cc1,,active: 16.4 µM
CCn1c(SCCOc2ccccc2F)nc2ccccc21,,"inconclusive [inhibitor, single point]"
COC(=O)[C@H](C(C)C)N(Cc1ccccc1)S(=O)(=O)CCNC1CCCC1,,"inconclusive [inhibitor, partial curve]"
Cc1nn(-c2ccc(N3CCOCC3)nn2)c(C)c1CCC(=O)NCc1ccc(OC(C)C)cc1,inactive: -22.7%,
Cc1cccc(C)c1OCC(O)CNC(C)c1ccccc1 (stereo not given),,active: 5.17 µM
Cc1cc2nc(-c3cccc(Cl)c3)c(Cc3cccc(Cl)c3)n2c(C)c1Br,inactive: -2.33%,
COc1ccc(C(=O)c2c(N)sc3c2CCN(C)C3)cc1,,"inconclusive [inhibitor, single point]"
CCOC(=O)c1c(NC(C)=O)sc2c(OCC(O)CNC(C)(C)C)c(Br)ccc12 (stereo not given),,active: 10.3 µM
CCOC(=O)COc1ccc(S(=O)(=O)NCc2ccncc2)cc1,,"inconclusive [inhibitor, partial curve]"
CCOc1ccc(NS(=O)(=O)c2ccc3[nH]c4c(c3c2)CCCC4)cc1,,"inconclusive [inhibitor, partial curve]"
O=C(c1cc2cc(F)ccc2[nH]1)N1CCc2ccccc21,inactive: -12.4%,
Cc1cc(C(=O)COC(=O)c2ccc[nH]c2=O)c(C)n1-c1ccc(F)cc1,,"inconclusive [inhibitor, single point]"
COCCNC(=O)c1cn(C)c2ccc(S(=O)(=O)N3CCCCC3)cc2c1=O,,"inconclusive [inhibitor, partial curve]"
Cc1nn(-c2ccccc2)c(C)c1/C=N/n1c(-c2ccc(Cl)cc2)n[nH]c1=S,,active: 16.4 µM
O=C(COc1ccc(Cl)cc1Cl)NCC(=O)N/N=C/c1c[nH]c2ccccc12,,"inconclusive [inhibitor, partial curve]"
O=C(/C=C\c1ccc(-c2cccc([N+](=O)[O-])c2)o1)N1CCOCC1,,active: 23.1 µM
COc1ccc(-c2oc3ccccc3c(=O)c2O)cc1OC,inactive: -28.9%,
O=C(c1ccc(Cl)cc1)N(Cc1cccs1)C1CCS(=O)(=O)C1 (stereo not given),,"inconclusive [inhibitor, partial curve]"
Cc1cccc(N(C)S(=O)(=O)c2cc3c(cc2Cl)NC(=O)CO3)c1,,"inconclusive [inhibitor, single point]"
